According to PubChem BioAssay AID1508642 (National Center for Advancing Translational Sciences (NCATS), 2021):
Among all 43,000 compounds or so, about 200 (0.47%) were called active. Not shown: some 12% with an inconclusive outcome. The call rests on the fitted dose curve; in most records, active means well fitted cell-killing curve with a large enough effect; inconclusive means small, poorly fitted or top-dose-only effect, or effect the other way; inactive means flat fitted curve, though single readings scatter. The list shows a part of the results.

Experiment: Cell viability qHTS assay in S16 Pmp22-F2sN cells; further: nearly all actives have a fitted effect of over 65% in size
Settings: S16 Pmp22-F2sN Schwann cells (luciferase reporters placed in the Pmp22 gene) viability, CellTiter-Glo, 24 h; series mostly up to 57.5 µM; activity change, negative = cytotoxicity: at the top concentration
Procedure, shortened: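 CellTiter-Glo counter-screen, qHTS, 1536-well. Cells: S16(c9) Pmp22-F2sN, 500-1,000/well in DMEM + 10% FBS. Cpd 23 nL pin transfer, 24 h, 37C/5% CO2. Read: luminescence, CCD imager.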
On the % scale 0 is the no-effect control and ±100 the full control effect.

Compound	activity change, negative = cytotoxicity
CC(C)Cc1ccc(S(=O)(=O)N2CCN(Cc3noc(CCC(=O)N4CCCCC4)n3)CC2)cc1	inactive: -6.81%
CC1=C(c2ccc(F)cc2)S(=O)(=O)N=C1N1CCC(C(=O)NCCc2ccccc2C)CC1	inactive: -1.29%
COc1ccc(C2C(C(=O)Nc3ccccc3)=C(C)Nc3nc(SCC(=O)c4ccc(C)cc4)nn32)cc1 (stereo not given)	inactive: 3.71%
Cc1c(C(=O)Nc2ccc(-n3c(C)nc4ccccc4c3=O)cc2)cccc1[N+](=O)[O-]	inactive: -0.0679%
Cc1ccc(Cl)cc1NC(=O)Cn1c(=O)n(CCC(=O)NCc2ccc3c(c2)OCO3)c(=O)c2sccc21	inactive: 6.41%
COC(=O)C(NC(=O)CCc1c(C)nc2c(-c3ccccc3)c(C)nn2c1C)C(C)C (stereo not given)	inactive: 0.8%
CCCC(=O)Nc1nnc(S(=O)(=O)N2CCCCCC2)s1	inactive: -8.72%
Cc1ccc2c(=O)cc(C(=O)N(Cc3ccc(N(C)C)cc3)C3CCS(=O)(=O)C3)oc2c1 (stereo not given)	inactive: -3.29%
CCCN1CCN(CCCNC(=O)Cn2nc(CC)n3c(cc4occc43)c2=O)CC1	inactive: -1.4%
Cc1cc(NC(=O)N(C)CCc2c(C)nn(C)c2C)ccc1Br	inactive: 8.56%
CSc1ccc(CCNC(=O)CN2C(=O)c3cccnc3Oc3ccc(C)cc32)cc1	inactive: 3.36%
Cc1cc(F)ccc1NS(=O)(=O)c1c(C)nc2scc(C)n2c1=O	inactive: 0.889%
CCc1cccc(C)c1NC(=O)CSc1nc2ccccc2nc1N1CCOCC1	inactive: -15.6%
CC1(C)O[C@H]2[C@@H](O1)[C@@H](C(=O)Nc1ccc(F)c(F)c1)O[C@@H]1OC(C)(C)O[C@@H]12	inactive: 11.6%
COc1cc(C2C(C(=O)Nc3ccc(C)cc3C)=C(C)Nc3nc4ccccc4n32)cc(OC)c1OC (stereo not given)	inactive: 2.36%
Cc1ccc(S(=O)(=O)N(CCc2ccccc2)CC(=O)Nc2cc(C)ccc2C)cc1	inactive: -3.3%
CN(C)S(=O)(=O)c1ccc(C(=O)NC2CC(=O)N(c3ccc4c(c3)OCCO4)C2)cc1 (stereo not given)	inactive: -4.72%
CCOC(=O)c1cc(-c2ccc(C)cc2)n(CCC(=O)Nc2ccc(C(C)C)cc2)c1C	inactive: -28.6%
CCOc1ccccc1NC(=O)c1nc2nc(C)cc(C(F)F)n2n1	inactive: 17.6%
O=C(NC1CC(=O)N(c2ccc(Cl)cc2)C1)c1ccc2c(c1)OCO2 (stereo not given)	inactive: 0.971%

Compound	activity change, negative = cytotoxicity
COc1cccc(N2CCN(C(=O)C3CCN(S(=O)(=O)c4c(C)noc4C)CC3)CC2)c1	inactive: 2.64%
Cc1cccc(NC(=O)Cn2nnc(C(=O)Nc3ccccc3Br)c2N)c1C	inactive: 7.03%
Cn1cc(C(=O)NCc2ccccc2)c(=O)c2cc(S(=O)(=O)N3CCOCC3)ccc21	inactive: 2.89%
Cc1ccc(F)c(NC(=O)Nc2ccc3snnc3c2)c1	inactive: -0.325%
COc1ccc(OC)c(NS(=O)(=O)c2ccc3[nH]c4c(c3c2)CCCCC4)c1	inactive: -0.788%
O=C(NCCN1CCN(c2cccc(Cl)c2)CC1)C1COc2ccccc2C1 (stereo not given)	inactive: -0.686%
Cc1cccc(CNC(=O)Cn2ccc3cc(S(=O)(=O)N4CCCC4)ccc32)c1	inactive: -4.38%
CCOc1ccc(CCNC(=O)c2cn(CC)c3ccc(S(=O)(=O)N4CCCCCC4)cc3c2=O)cc1OCC	inactive: -19.6%
CC(=O)N1CCCc2cc(S(=O)(=O)N(C)CC(=O)Nc3cccc(C)c3C)ccc21	inactive: -13.8%
O=C1c2[nH]nc(-c3ccccc3O)c2C(c2cccc(Cl)c2)N1Cc1cccnc1 (stereo not given)	inactive: -0.379%
Cc1cccc(NC(=O)Cn2c(=O)nc(-c3ccccc3)c3ccccc32)c1C	inactive: 26.3%
O=C(c1ccc(CSc2nc3ccncc3n2Cc2cccc(F)c2)cc1)N1CCCCC1	inactive: -14%
CCOc1ccc(N(CC(=O)NCc2ccc(C)cc2)S(=O)(=O)c2c(C)noc2C)cc1	inactive: 10%
CCOC(=O)c1c(C)oc2ccc(N(C(=O)c3ccncc3)S(=O)(=O)c3ccc(Br)cc3)cc12	inactive: -19%
CC1=C(c2ccc(C(C)C)cc2)S(=O)(=O)NC1=NCc1ccccc1Br	inactive: -8.57%
COc1ccc(C)cc1NC(=O)C1CCCN(S(=O)(=O)c2ccc3[nH]c(=O)ccc3c2)C1 (stereo not given)	inactive: 7.31%
COc1cc(NC(=O)CN2C(=O)CN(C)C(=O)c3ccccc32)cc(OC)c1OC	inactive: 1.9%
CCOc1ccc(CCNC(=O)Cn2ncc3c(=O)oc4ccc(C)cc4c32)cc1	inactive: 1.81%
CCOC(=O)c1c(C)[nH]c(C)c1S(=O)(=O)N1CCC(C(=O)Nc2ccc(C)cn2)CC1	inactive: 13.2%
CCn1c2ccccc2c2cc(NC(=O)COc3cccc(C)c3)ccc21	inactive: 4.28%

Compound	activity change, negative = cytotoxicity
CCOc1cc2[nH]c(=O)n(CCCC(=O)N3CCN(c4ccc(OC)cc4)CC3)c(=O)c2cc1OCC	inactive: 1.59%
CNC(=O)C1CCC(Cn2c(=O)c3sccc3n(CC(=O)Nc3ccc(C)c(F)c3)c2=O)CC1 (stereo not given)	inactive: -0.837%
Cc1ccc(NC(=O)CN2C(=O)CCn3nc(-c4cccn4C)cc32)cc1	inactive: -3.86%
COCCCNc1nc2c(S(=O)(=O)c3ccc(C)c(C)c3)nnn2c2ccc(Cl)cc12	inactive: -19.1%
CCOc1ccc(OCC)c(NC(=O)CCC(=O)N2CCOc3ccccc32)c1	inactive: -6.72%
CSc1ncc(C(=O)Nc2ccc(F)cc2F)c(-c2ccccc2)n1	inactive: 15.3%
Cc1ccc2oc(-c3cc(NC(=O)c4ccco4)ccc3Cl)nc2c1	inactive: 21.8%
O=C(CSCc1nc2cccnc2n1C1CCCCC1)NCc1cccc(Cl)c1	inactive: -4.71%
COc1ccc(-n2nc(C(=O)N3CCN(c4cccc(C)c4C)CC3)c3c4ccccc4n(C)c3c2=O)cc1	inactive: 11.7%
O=C(Nc1nc2nc(-c3ccccc3)cc(=O)n2[nH]1)c1ccc(Cl)cc1	inactive: -1.46%
CCC(C)OC(=O)/C(C#N)=C\c1ccc(-c2ccccc2Cl)o1 (stereo not given)	inactive: -0.238%
CCN(CC)CCNC(=O)c1nn(C)c2c1CS(=O)(=O)c1ccccc1-2	inactive: 3.88%
CCC(=O)N1c2ccccc2CC1C(=O)NCCc1ccc(C)cc1 (stereo not given)	inactive: 10.1%
Cc1ccc(CNC(=O)c2nn(C)c3c2CS(=O)(=O)c2ccccc2-3)cc1	inactive: -5.26%
Cc1cn(C)c(CC(=O)NCc2ccccc2Cl)c1C(=O)O	inactive: 1.96%
O=C(Cn1c(=O)n(CC2CCCO2)c(=O)c2ccccc21)Nc1cccc(Cl)c1 (stereo not given)	inactive: 2.73%
COc1cc(OC)c(Nc2nc3ccccc3nc2-n2nc(C)cc2C)cc1Cl	inactive: 1.45%
CCOC(=O)c1ccccc1NC(=O)N1CCC(N2CCN(Cc3ccccc3)C(=O)C2=O)CC1	inactive: 16.1%
CCS(=O)(=O)N1CCc2cc(C(=O)NCc3ccccc3)ccc21	inactive: 6.35%
Cc1ccc(-c2nc3nc(C)cc(Nc4ccccc4O)n3n2)cc1	inactive: 6.11%
